This is an account of results in paper PMC6360386.

By UniProt entry, the sequences of proteins in these tests, tags left out.
UniProt Q05397: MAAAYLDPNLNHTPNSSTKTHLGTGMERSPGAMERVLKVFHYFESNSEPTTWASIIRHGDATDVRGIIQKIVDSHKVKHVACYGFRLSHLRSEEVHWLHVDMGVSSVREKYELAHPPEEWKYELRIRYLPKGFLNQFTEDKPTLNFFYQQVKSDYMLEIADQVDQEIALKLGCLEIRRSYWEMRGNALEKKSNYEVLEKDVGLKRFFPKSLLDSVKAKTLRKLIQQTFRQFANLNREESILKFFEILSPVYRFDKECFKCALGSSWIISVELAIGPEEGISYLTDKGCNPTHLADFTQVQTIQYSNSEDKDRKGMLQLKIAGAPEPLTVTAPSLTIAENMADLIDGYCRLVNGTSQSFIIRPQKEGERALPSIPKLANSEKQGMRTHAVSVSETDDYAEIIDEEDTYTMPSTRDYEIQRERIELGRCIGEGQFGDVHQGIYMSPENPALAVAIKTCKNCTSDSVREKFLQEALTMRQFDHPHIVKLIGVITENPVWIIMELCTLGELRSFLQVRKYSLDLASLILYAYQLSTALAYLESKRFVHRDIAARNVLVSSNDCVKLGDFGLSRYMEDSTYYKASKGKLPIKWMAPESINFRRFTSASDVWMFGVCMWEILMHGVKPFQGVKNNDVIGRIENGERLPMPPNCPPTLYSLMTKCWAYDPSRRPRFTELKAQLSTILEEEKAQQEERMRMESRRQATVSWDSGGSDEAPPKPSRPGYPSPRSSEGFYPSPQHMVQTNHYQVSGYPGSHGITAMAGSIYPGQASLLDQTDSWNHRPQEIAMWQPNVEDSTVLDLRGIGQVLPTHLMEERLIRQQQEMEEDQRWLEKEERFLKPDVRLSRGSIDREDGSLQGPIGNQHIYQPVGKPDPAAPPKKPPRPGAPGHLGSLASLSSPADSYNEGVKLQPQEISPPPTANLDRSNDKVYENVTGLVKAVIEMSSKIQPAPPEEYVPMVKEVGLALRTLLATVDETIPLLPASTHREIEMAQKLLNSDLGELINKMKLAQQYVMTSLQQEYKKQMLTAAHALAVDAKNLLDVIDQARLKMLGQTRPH
UniProt Q8K045: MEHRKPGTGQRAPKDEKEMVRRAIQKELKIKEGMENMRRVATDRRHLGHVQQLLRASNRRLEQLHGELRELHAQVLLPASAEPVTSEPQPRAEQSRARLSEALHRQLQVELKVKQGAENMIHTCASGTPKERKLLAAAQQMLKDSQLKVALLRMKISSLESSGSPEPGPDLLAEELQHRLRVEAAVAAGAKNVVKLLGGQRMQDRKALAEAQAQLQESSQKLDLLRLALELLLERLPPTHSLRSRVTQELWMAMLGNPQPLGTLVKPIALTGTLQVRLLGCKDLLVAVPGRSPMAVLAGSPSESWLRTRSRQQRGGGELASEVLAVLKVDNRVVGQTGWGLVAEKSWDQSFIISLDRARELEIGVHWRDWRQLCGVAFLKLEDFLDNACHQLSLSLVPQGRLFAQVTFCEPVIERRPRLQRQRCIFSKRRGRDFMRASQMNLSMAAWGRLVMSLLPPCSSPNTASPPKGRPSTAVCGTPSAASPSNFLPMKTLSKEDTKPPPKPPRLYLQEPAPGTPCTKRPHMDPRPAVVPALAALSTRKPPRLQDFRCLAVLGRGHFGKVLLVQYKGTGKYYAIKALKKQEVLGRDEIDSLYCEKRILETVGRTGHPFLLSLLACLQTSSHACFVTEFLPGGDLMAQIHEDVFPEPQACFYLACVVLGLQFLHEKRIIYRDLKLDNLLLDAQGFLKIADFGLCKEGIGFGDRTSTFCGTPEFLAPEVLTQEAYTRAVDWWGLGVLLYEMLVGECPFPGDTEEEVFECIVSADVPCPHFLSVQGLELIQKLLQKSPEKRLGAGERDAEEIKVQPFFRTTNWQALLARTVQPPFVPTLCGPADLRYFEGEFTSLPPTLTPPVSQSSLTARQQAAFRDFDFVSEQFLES
UniProt Q6P5Z2: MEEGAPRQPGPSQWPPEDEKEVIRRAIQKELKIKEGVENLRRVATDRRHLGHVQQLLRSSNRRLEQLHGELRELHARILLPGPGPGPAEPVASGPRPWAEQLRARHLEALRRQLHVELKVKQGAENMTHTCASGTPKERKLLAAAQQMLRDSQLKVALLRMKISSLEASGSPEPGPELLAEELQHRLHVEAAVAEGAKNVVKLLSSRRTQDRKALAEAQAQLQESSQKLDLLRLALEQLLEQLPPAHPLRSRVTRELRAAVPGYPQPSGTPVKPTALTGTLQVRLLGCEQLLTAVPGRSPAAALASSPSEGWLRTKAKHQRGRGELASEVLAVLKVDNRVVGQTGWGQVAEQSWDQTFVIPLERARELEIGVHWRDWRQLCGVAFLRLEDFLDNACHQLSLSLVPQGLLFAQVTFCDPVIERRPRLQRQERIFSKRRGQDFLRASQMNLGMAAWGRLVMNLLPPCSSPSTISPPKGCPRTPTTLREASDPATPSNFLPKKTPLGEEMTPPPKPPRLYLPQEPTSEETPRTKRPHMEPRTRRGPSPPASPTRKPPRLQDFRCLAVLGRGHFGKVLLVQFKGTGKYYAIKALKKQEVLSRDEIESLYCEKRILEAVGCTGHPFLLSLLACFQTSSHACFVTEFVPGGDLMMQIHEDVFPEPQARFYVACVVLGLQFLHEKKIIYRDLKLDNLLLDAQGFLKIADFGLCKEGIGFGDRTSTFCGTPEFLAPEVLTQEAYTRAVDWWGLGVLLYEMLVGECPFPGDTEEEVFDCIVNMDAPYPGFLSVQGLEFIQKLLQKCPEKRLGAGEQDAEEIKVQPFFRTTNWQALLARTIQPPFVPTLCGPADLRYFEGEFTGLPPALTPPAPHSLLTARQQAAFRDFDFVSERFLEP

Substitutions are numbered along the chain they refer to. No constants are given. Whether binding was seen depends on the method and setting. Binding seen in cells or lysates may run through a third protein. Some results given as binding are weak or reduced against the parent protein; the word gives no strength. Sequences can lack the tags named with a protein.

Experiment [1] concerns the target T1, GFP-p130Cas WT (mouse, full-length) (mouse) (UniProt Q61140).
T1 sequence: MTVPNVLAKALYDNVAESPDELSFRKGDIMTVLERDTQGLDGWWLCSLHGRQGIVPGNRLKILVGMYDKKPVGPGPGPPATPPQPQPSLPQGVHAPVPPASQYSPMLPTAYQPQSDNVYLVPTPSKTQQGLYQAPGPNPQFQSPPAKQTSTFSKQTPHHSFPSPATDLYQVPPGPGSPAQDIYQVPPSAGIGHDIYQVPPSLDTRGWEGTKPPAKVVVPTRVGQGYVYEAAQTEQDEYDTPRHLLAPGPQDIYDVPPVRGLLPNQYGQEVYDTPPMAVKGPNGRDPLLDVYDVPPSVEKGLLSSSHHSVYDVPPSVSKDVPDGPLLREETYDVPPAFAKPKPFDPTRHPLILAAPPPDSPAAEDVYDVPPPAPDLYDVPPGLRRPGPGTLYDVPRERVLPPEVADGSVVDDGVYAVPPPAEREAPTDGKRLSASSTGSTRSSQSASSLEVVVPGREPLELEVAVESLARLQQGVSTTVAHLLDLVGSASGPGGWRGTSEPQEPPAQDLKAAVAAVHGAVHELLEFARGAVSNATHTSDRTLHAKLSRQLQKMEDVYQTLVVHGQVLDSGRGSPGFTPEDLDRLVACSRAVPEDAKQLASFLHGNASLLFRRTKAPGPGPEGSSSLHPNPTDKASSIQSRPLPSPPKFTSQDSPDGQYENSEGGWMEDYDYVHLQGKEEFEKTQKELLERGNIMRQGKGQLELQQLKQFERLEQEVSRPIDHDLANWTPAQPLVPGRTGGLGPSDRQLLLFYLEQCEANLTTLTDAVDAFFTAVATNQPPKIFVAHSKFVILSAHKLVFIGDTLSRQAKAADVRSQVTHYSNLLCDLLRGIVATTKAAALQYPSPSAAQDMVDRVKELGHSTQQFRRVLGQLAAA
Put plainly: co-IP; MDA-MB-231 cells transiently transfected with mouse GFP-p130Cas variants; immunoprecipitation with anti-GFP antibody; blots with anti-PKN3 and anti-FAK; 1% Triton lysis buffer.

Experiment [2] addresses T2, GST-fused p130Cas SH3 domain WT (mouse) (UniProt Q61140).
T2 sequence: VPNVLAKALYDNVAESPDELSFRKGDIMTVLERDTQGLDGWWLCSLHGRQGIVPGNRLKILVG
Put plainly: pull-down; purified GST-fused p130Cas SH3 variants as bait, lysates of MEFs expressing Flag-PKN3 variants; 1% Triton lysis buffer (50 mM Tris/HCl pH 7.1, 150 mM NaCl, 1% Triton X-100); anti-Flag immunoblot, bound PKN3 quantified relative to Flag-PKN3 WT; only the target purified. Background: A western blot detects proteins with antibodies after separation by electrophoresis.

The target in experiment [3] is T3, GFP-p130Cas Y12E (mouse, full-length) (mouse) (UniProt Q61140).
T3 sequence: T1 sequence with Y12E
Put plainly: co-IP; MDA-MB-231 cells transiently transfected with mouse GFP-p130Cas variants; immunoprecipitation with anti-GFP antibody; blots with anti-PKN3 and anti-FAK; 1% Triton lysis buffer.

For experiment [4], the target named is T4, GFP-p130Cas Y12F (mouse, full-length) (mouse) (UniProt Q61140).
T4 sequence: T1 sequence with Y12F
The description is as above.

Consider “FAK, endogenous in MDA-MB-231 cells (from UniProt Q05397 1-1052) (enzyme)”, for which the binding result in experiment [1] is on record as “binds”.
As for “Flag-PKN3 WT (mouse), expressed in MEFs (from UniProt Q8K045 1-878) (enzyme)”, the binding entry in experiment [2] is “binds”.
In the case of “PKN3, endogenous in MDA-MB-231 cells (from UniProt Q6P5Z2 1-889) (enzyme)”, the binding entry in experiment [1] was “binds”; in experiment [3], “no binding”; in experiment [4], “binds”.
